# Experimental data: ChEMBL document CHEMBL4888484, “Replenishing the malaria drug discovery pipeline: Screening and hit evaluation of the MMV Hit Generation Library 1 (HGL1) against asexual blood stage Plasmodium falciparum ,using a nano luciferase reporter read-out” (2022)
# Hit rate of the full screen: of about 150,000 compounds, about 540 (0.36%) showed an effect of 50% or more. The list shows a part of the results.
# System: Plasmodium falciparum
# Test: Primary screen in NF54 nanoGlo assay, in single point, at 2uM, 72h; a lower Z score goes with more inhibition
# Type: functional, Erythrocyte
# Conditions: timepoint 72 hour
SMILES,% Inhibition,Z score
CCOc1ccc(OCc2n[nH]c(CCc3ccncc3)n2)cc1,9%,-1.2
CC(N[C@@H](C)CO)c1ccc(Br)cc1F (some centres not stated),-4%,0.54
O=C1CCC2(CCN(S(=O)(=O)c3ccc(F)cc3F)CC2)N1,36%,-0.7
O=C(N[C@@H]1c2ccccc2C[C@H]1O)N1CCN(C(=O)c2ccc[nH]2)CC1,0%,-0.07
CC[C@H](C)NC(=O)c1noc(C)c1Cn1nc(C)cc1C,-19%,1.9
CN(CC1CCCC1)C(=O)NCCOCCS(N)(=O)=O,4%,-0.4
CC(=O)N(C)Cc1cn(-c2cc(C)cc(C)c2)nn1,3%,-0.46
CCCn1nnc2cc(S(=O)(=O)N3CCC[C@H](C(=O)NCc4cccc(C)c4)C3)ccc21,-25%,2.24
CCNc1nccnc1N1CCC[C@H](CC(N)=O)CC1,-8%,1.45
C[C@H]1CCCN(c2cc(C(=O)Nc3cccc(N4C(=O)CNC4=O)c3)ccn2)C1,-3%,0.4
CC(C)n1cc(-c2nc(CCN3CCCC3=O)no2)cn1,-10%,1.39
O=S(=O)(c1ccc(-c2nnc(C3CCC3)o2)o1)N1CCCC1,-2%,0.29
N#Cc1ncn(CC(=O)NCc2ccc3c(c2)OCO3)n1,2%,-0.23
Cc1nc(N2CCOCC2)cc(N2CCN(C(=O)c3ccc(Cl)cc3)CC2)n1,0%,-0.04
Fc1ccc(CC[C@H]2CCCNC2)cc1F,-9%,1.01
CC(C)=CCN1CC2(CCN(C(=O)c3ccc(CO)o3)CC2)CC1=O,-1%,0.21
C=CCN1C(=O)COc2ccc(NC(=O)c3snnc3C)cc21,-2%,0.16
COc1ccc(C(=O)NCCc2ncc(C)n2CC2CC2)cn1,-3%,0.28
COc1ccc(C(=O)NCC2CCCC2NS(C)(=O)=O)nn1 (configuration not stated),1%,-0.09
COCCn1c(=O)c2sccc2n(CC(=O)N2CCN(c3ccc(OC)cc3)CC2)c1=O,7%,-0.84
Cc1ccc2c(c1)C(=O)N(CCCC(=O)N1CCC(c3c[nH]c4ccccc34)CC1)C2=O,-1%,0.28
CCC(=O)N1CC23C=CC(CC2CC12CCCCC2)O3 (configuration not stated),-5%,0.75

SMILES,% Inhibition,Z score
Cn1cc(-c2ccccc2)c(NC(=O)NCCC(=O)N2CCCCCC2)n1,7%,-1.08
Cc1csc(NC2CCN(C(=O)c3cscc3C(F)(F)F)CC2)n1,-7%,0.98
CN(C)S(=O)(=O)N1CCC(CNC(=O)Cc2c(F)cccc2Cl)CC1,3%,-0.37
N=C(N)Nc1nc(CCN2C(=O)c3ccccc3C2=O)cs1,-14%,2.64
COc1ccc(CCC(=O)N2C(C(=O)O)CC3CCCCC32)c(OC)c1OC (configuration not stated),-8%,0.9
CCc1nc(CC)n(Cc2ccccn2)n1,-11%,1.19
CCOc1ccccc1CN1C(=O)C2(OCCO2)c2ccccc21,-3%,0.63
Cc1ccc(-c2nc(CCNS(=O)(=O)c3ccc(C4CCCCC4)cc3)n[nH]2)cc1,-6%,1.04
CN1C(=O)[C@H](O)N(c2cccc3ccccc23)C1=O,32%,-0.44
COc1ccc(C2CN(C(=O)c3ccccc3)CC2C(=O)NC2CC2)c(OC)c1 (configuration not stated),3%,-0.46
CCCc1csc(CCN2CCOC2=O)n1,-15%,2.36
Cc1cc(C)c(C)c(S(=O)(=O)N2CCC[C@H]2c2nc(-c3cccc(Cl)c3)no2)c1C,-1%,0.15
C=CCOc1ccccc1CN(CC(=O)N1CCNC1=O)c1ccc(C)c(C)c1,-3%,0.34
Cc1noc(C)c1CNc1ccc(S(=O)(=O)N2CCCC2)cc1,-2%,0.28
COC1(CNC2CC(c3ccc(F)cc3)C2)CCOCC1 (configuration not stated),-15%,2.86
COC(=O)c1cn(-c2cccc(C)n2)cn1,3%,-0.42
Cc1cc(CNC(=O)NCCCOc2cccc(C)c2C)n(C)n1,-7%,0.88
CC(C)(C)OC(=O)N1CCC(CC(=O)NCc2cncc(C3CC3)c2)CC1,-7%,0.78
Cc1ccc(C)n1CC(=O)N1CCc2[nH]c3ccc(F)cc3c2C1,-16%,1.97
Cc1ncccc1C(=O)N1CCC[C@H]1c1nc(CCOCC2CC2)no1,-4%,0.54
CCc1c(C)noc1NC(=O)c1cncn1C,-3%,0.38
CCCN(CCC)C(=O)Cn1nc2c(N3CCN(c4ccccc4C)CC3)nccn2c1=O,-26%,2.47

SMILES,% Inhibition,Z score
Fc1ccc(-c2csc(-c3nc(-c4ccc(Cl)cc4)cs3)n2)cc1,-2%,0.19
CC#CCOc1ccc(Cl)cc1C(N)=O,-9%,1.54
Cc1nc2ccccn2c1CN(C)C(=O)c1cc(C(C)C)no1,-11%,2.03
COc1ccccc1CNc1nc(-c2ccco2)n[nH]1,-12%,1.08
CC(C)(C)c1cc(Oc2ccc(-n3cncn3)cc2)ncn1,5%,-0.62
COc1ccc(OC)c(CNC(=O)C2CCN(c3ccc(-c4cccc(C)c4)nn3)CC2)c1,3%,-0.43
O=S(=O)(CCc1ccc2c(c1)CCO2)N1CCOc2cc(F)ccc21,-15%,2.44
NC(N)=Nc1nc(C2CCC(F)(F)CC2)cs1,4%,-0.54
COCCN1CC[C@H](CN(C)c2ccncn2)C1,1%,-0.2
COc1cc(NC(=O)Cn2c(=O)n(C)c(=O)c3c2c(-c2ccccc2)cn3C)cc(OC)c1OC,46%,-6.22
CN(C(=O)C[C@](C)(O)c1ccccc1)c1ccc2c(c1)CCO2,-6%,0.8
CCN(CC(F)F)C(=O)Nc1cc(Cl)ccc1Cl,-11%,1.71
CC(C)(O)CN1CCN(Cc2nc(C(=O)N3CCN(c4ccccc4)CC3)co2)CC1,-9%,0.84
COc1cc(C)ccc1NC(=O)N1CCC[C@@H]1Cn1cncn1,-12%,1.79
COc1ccc2c(c1)[C@]1(C)CCCc3c(O)c(-c4ccccc4)c(=O)n-2c31,-9%,1.17
Cc1csc2c(N[C@H]3CCN(C4CCCC4)C3)ncnc12,-6%,0.66
COc1cc(-c2nc(=O)c(CCC(=O)NCCN(C)C)n[nH]2)ccc1OCc1cccc(F)c1,-8%,0.73
CN1C(=O)[C@@H](NC(=O)NCCc2cnc3c(Cl)cnn3c2)Cc2ccccc21,-2%,0.28
Cc1cc(C)cc(C(=O)N[C@@H](C)c2nnc3c(=O)[nH]ccn23)c1,1%,-0.16
Cc1c(CN2CC[C@H](CNC(=O)c3cnccn3)C2)[nH]c2ccccc12,8%,-1
Cc1occc1CNCCc1cn(C)nn1,-1%,0.27
O=C(NCc1ccncc1)c1ccc(N2CCCCS2(=O)=O)cc1,-8%,1.09

SMILES,% Inhibition,Z score
CCc1cc(N2CCc3onc(-c4cccc5ccccc45)c3C2)ncn1,-7%,1.18
COC(=O)c1ccc(C(=O)N2CC[C@@H](c3ccccc3)S(=O)(=O)CC2)cc1,-10%,1.66
CCc1nn(-c2cccc(C)c2)c(N2CCN(C)CC2)c1CN(CC)Cc1ccco1,-10%,1.18
CN1CC[C@H](CN(C)c2cccc(F)c2C#N)C1,6%,-0.94
COC[C@@](C)(C#N)NC(=O)c1ccc(F)c(Cl)c1F,-9%,0.98
COc1cc2nc(N(C)C)c(CN(CCN(C)C)C(C)=O)cc2c(OC)c1OC,-13%,2.43
COCCCNC(=O)CCc1nc(N2CCCCCC2)c2c(C)noc2n1,-8%,1.31
O=C1CN(C(=O)c2cnc(C(F)(F)F)nc2)c2cccc(F)c2N1,-8%,1.1
c1ccc(Cn2cccn2)c(CN2CCO[C@]3(CNCCOC3)C2)c1,-10%,1.31
Cc1cc(NC(=O)C2CCCCC2C(=O)N2CCCC2)ccn1 (configuration not stated),5%,-0.71
CC(=O)N1CCc2cc(N3C[C@@H](C(=O)NCc4cccc(F)c4)CC3=O)ccc21,-6%,1.08
Cc1cccc(NC(=O)N2CCC[C@H]2c2nc3cc(-c4ccc(F)cc4F)ccc3o2)c1C,-12%,1.8
C[C@H]1CN(Cc2cc(O)nc(-c3ccccc3)n2)CCN1c1nccn2cnnc12,-3%,0.53
CC[C@H](NCc1scnc1C)c1cccc(C#N)c1O,7%,-1.22
CCOC1CC(c2nc(Cc3ccc(F)cc3C)no2)C1 (configuration not stated),-42%,4.89
C[C@@]12CN(C(=O)NCCc3ccns3)C[C@@H]1CS(=O)(=O)C2,-2%,0.25
CNC(=O)C(C)(C)CNC1C[C@@H]2CCCC[C@H]12 (some centres not stated),18%,-2.22
CCn1nc(C)cc1C(=O)N[C@@H](C(C)(C)C)C(F)(F)F,-10%,2.09
O=C(c1cnc2nccn2c1)N1CCC[C@H]1C(F)(F)F,-14%,2.78
CCOC(=O)c1nnn(Cc2ccc(C)cc2)c1NC(=O)CN1CCOCC1,8%,-1.51
